In PubChem BioAssay AID651820 (National Center for Advancing Translational Sciences (NCATS), 2012):
Values joined by “and” are separate entries in the source; they are usually repeats but may differ in a detail not shown here. Equal entries are not always repeated. About 12,000 (3.5%) of roughly 340,000 compounds were called active. Inconclusive results, whose numbers are uncertain, are shown with a selection of clear calls. Calls come from the whole dose curve; as a rule, active = well fitted inhibition curve with a large enough effect; inconclusive = small, poorly fitted or top-dose-only effect, or another doubt; inactive = no such curve, though single readings can be large or run the other way. Potencies of inconclusive entries are doubtful fits and often do not repeat.

assay: qHTS Assay for Inhibitors of Hepatitis C Virus (HCV); details: Huh7.5.1 HCVcc-Cre (HCVcc is cell-culture hepatitis C virus) infection, luciferase reporter, 44 h; series mostly up to 41.8 µM
Outline: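 Luciferase read-out (15 sec integration) after a 15 min room-temperature substrate step quantifies HCVcc-Cre infection. Cells, 1,000 per well, had compound added 4 h post-plating, then virus at ~0.5 moi, and were cultured 44 h.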
Potency is the fitted concentration of half-maximal effect; tags give direction and shape of the fitted curve.

Compound | Potency
Cc1cc(C)cc(N(C)S(=O)(=O)c2nnc(NC(=O)C(C)C)s2)c1 | inactive
O=C(CCn1c(=O)oc2ccccc21)N1CCN(c2ccc(F)cc2)CC1 | inactive
Cc1ccc(CNC(=O)Nc2ccc(F)cc2)n1C | inactive
CCOc1ccc(S(=O)(=O)Nc2ccc(F)cc2)c(C)c1C | inconclusive: 2.51 µM [inhibitor, full curve]
C/C(CC(=O)Nc1cccc2c1CCCC2)=N\NC(=O)COc1ccccc1 | inactive
COC(=O)c1ccc(C23CC4(C2)[C@H](CN(Cc2ccc(C(F)(F)F)cc2)[C@@H]4c2ccccc2)C3c2ccc(Cl)nc2)cc1 (stereo not given in full) | inconclusive: 5.62 µM [inhibitor, single point]
O=C(CN1C(=O)NC2(CCCCCC2)C1=O)c1ccc2c(c1)OCCO2 | inconclusive: 3.55 µM [inhibitor, single point]
CC(C)(C)C(=O)NCCCc1nc2ccccc2n1CCCOc1ccc(Cl)cc1 | inconclusive: 31.6 µM [inhibitor, single point]
Cc1ccc2nc(Nc3ccc4[nH]c(=O)[nH]c4c3)c(-n3nc(C)cc3C)nc2c1 | inconclusive: 31.6 µM [inhibitor, single point]
CCN(CC)C(=O)[C@H]1CC(CC(=O)NCc2ccco2)C(=O)N2CCc3c([nH]c4ccccc34)[C@]12C (stereo not given in full) | inconclusive: 31.6 µM [inhibitor, single point]
O=C(COC(=O)C1c2ccccc2Oc2ccccc21)Nc1ccc2c(c1)OCO2 | inconclusive: 5.62 µM [inhibitor, single point]
Cc1ccc(C(=O)/C=C/c2ccc(-c3ccccc3[N+](=O)[O-])o2)cc1 | inconclusive: 31.6 µM [inhibitor, single point]
CCCNc1nc(N)nc(-c2cc(Cl)ccc2OC)n1 | inactive
CN(C)CCCN(C(=O)CCc1ccccc1)c1nc2c(F)cccc2s1 | inactive
COc1ccc(C(=O)c2coc3ccc(O)c(CN4CCCCC4)c23)cc1 | inactive
CCOC(=O)C1CCN(C(=O)C(CCSC)NC(=O)COc2ccccc2)CC1 (stereo not given) | inconclusive: 11.2 µM [inhibitor, single point]
COc1ccccc1NC(=O)Nc1nnc(C(C)C)s1 | inactive
CCS(=O)(=O)N1CCN(c2ccc([N+](=O)[O-])c(NC(C)c3ccccc3)c2)CC1 (stereo not given) | inconclusive: 2.51 µM [inhibitor, partial curve]
CC1CCCC(C)N1C(=O)COC(=O)CNC(=O)c1ccc(Cl)cc1Cl (stereo not given) | inconclusive: 31.6 µM [inhibitor, single point]
O=C(COC(=O)C1CC(O)CN1S(=O)(=O)c1ccc(Cl)cc1)c1ccccc1Cl (stereo not given) | inactive
CCOC(=O)CNC(=O)c1ccc2[nH]c3ccccc3c2c1 | inconclusive: 31.6 µM [inhibitor, single point]
CC1C(=O)N2CCCc3cc(NC(=O)c4ccccc4C(F)(F)F)cc1c32 (stereo not given) | inconclusive: 7.08 µM [inhibitor, partial curve]
C=CCOC(=O)c1ccccc1C(=O)OCC1CO1 (stereo not given) | inconclusive: 3.16 µM [inhibitor, single point]
COc1ccccc1N1CCN(c2cnccn2)CC1 | inactive

Compound | Potency
O=C(/C=C/c1cccc(F)c1)c1ccc(N2CCOCC2)cc1 | inconclusive: 31.6 µM [inhibitor, single point]
O=C(NCCc1c[nH]c2ccccc12)Nc1cccc2ccccc12 | inconclusive: 35.5 µM [inhibitor, partial curve]
CC(=O)c1sc(NC(=O)c2cccc(C)c2)nc1C | inconclusive: 31.6 µM [inhibitor, single point]
COc1ccccc1C(=O)Nc1cccc2cccnc12 | inconclusive: 14.1 µM [inhibitor, single point]
Cc1ccc(S(=O)(=O)Oc2ccc(N3C(=O)C4C5CCC(C5)C4C3=O)cc2)cc1 (stereo not given) | inconclusive: 22.4 µM [inhibitor, single point]
CSc1nnc(-c2ccccc2)o1 | inactive
Cc1ccc(S(=O)(=O)N(Cc2ccccc2)c2ccccc2C(=O)N2CCCCC2)cc1 | inconclusive: 11.2 µM [inhibitor, single point]
CCOC(=O)NN=C1CN(S(=O)(=O)c2ccc(C)cc2)C1 | inactive
CCCCOc1cccc(C(=O)NC(=S)Nc2cccnc2)c1 | inactive
COc1ccccc1-n1cnc2c(c1=O)c1nc3ccccc3nc1n2-c1ccc(C)c(C)c1 | active: 7.94 µM
O=C(Cc1cccs1)Nc1ccc(Cl)c(S(=O)(=O)N2CCOCC2)c1 | inconclusive: 0.891 µM [inhibitor, full curve, poor fit]
Nc1ccccc1SCC(O)Cn1ccc2ccccc21 (stereo not given) | inactive
COC(=O)c1cccc(-n2nnnc2SCC(=O)Nc2nc3c(s2)CCCC3)c1 | inactive
CN(C)CC1CCCCC1OC(=O)c1ccc(Cl)cc1Cl (stereo not given) | inconclusive: 10 µM [inhibitor, partial curve]
CCOC(=O)c1ccccc1NC(=O)c1ccc(N(C)S(C)(=O)=O)cc1 | active: 10 µM
CC(=O)Nc1ccc(S(=O)(=O)N2CCC(N3CCCC3)CC2)cc1 | inconclusive: 31.6 µM [inhibitor, single point]
COCCNC(=O)C(c1ccc(F)cc1)N(CCOC)C(=O)CCC(=O)Nc1ccccn1 (stereo not given) | inactive
COc1ccc(Cl)cc1NC(=O)CN(C)CC(=O)Nc1c(C)n(C)n(-c2ccccc2)c1=O | active: 3.55 µM
COc1ccccc1-c1cnn2c(N3CCOCC3)cc(C)nc12 | inconclusive: 6.31 µM [inhibitor, partial curve]
CCCC[n+]1c2ccccc2cc2ccccc21 | active: 6.31 µM
CC(C)(C)c1ccc(C(=O)OCC(=O)NC2CC2)cc1 | inactive
Cc1ccc(Cl)cc1NC(=O)CN1CCN(S(=O)(=O)N2CCC(C)CC2)CC1 | inconclusive: 31.6 µM [inhibitor, single point]
Cc1nc2c(ccc3nc(NC(=O)c4ccc(S(=O)(=O)N(C)C)cc4)sc32)s1 | inconclusive: 3.98 µM [inhibitor, full curve, poor fit]
COc1ccc(Oc2nc(C)nc3c2oc2ccccc23)cc1 | active: 8.91 µM

Compound | Potency
C=CCn1cnc2c(nnn2-c2ccc(Cl)cc2)c1=O | inactive
COc1ccccc1/C=N/OCc1cc(C(C)=O)ccc1OC | inconclusive: 10 µM [inhibitor, single point]
CCOC(=O)C1CCCN(C(=O)c2cnn3c(C(F)F)cc(-c4ccc(C)cc4)nc23)C1 (stereo not given) | inconclusive: 11.2 µM [inhibitor, partial curve]
C=CCOc1c(Cl)cc(Cl)cc1S(=O)(=O)NCCO | inconclusive: 31.6 µM [inhibitor, single point]
O=C(Cn1c(NCCO)nc2ccccc21)Nc1cccc(S(=O)(=O)N2CCCC2)c1 | inconclusive: 14.1 µM [inhibitor, partial curve]
Cc1cc(NC(=O)CSc2nc(CCC3CCCC3)nc3ccccc23)no1 | inactive and inconclusive: 31.6 µM [inhibitor, single point]
O=C(c1ccc(F)c(S(=O)(=O)N2CCOCC2)c1)N(CCc1ccccc1)Cc1ccccc1 | inconclusive: 10 µM [inhibitor, partial curve]
COCC(=O)n1nc(-c2ccc(C)cc2)nc1NCc1ccc(F)cc1 | inactive
O=[N+]([O-])c1cc(C(F)(F)F)ccc1NCCc1c[nH]c2ccc(O)cc12 | inconclusive: 11.2 µM [inhibitor, single point]
O=[N+]([O-])c1cc(S(=O)(=O)Nc2ccccc2)ccc1NCc1cccnc1 | inconclusive: 31.6 µM [inhibitor, single point]
O=C1C2C3CC(C(Br)C3Br)C2C(=O)N1c1ccccn1 (stereo not given) | inconclusive: 31.6 µM [inhibitor, single point]
Cc1ccc(-c2ccnc3nc(Sc4ncc(C(F)(F)F)cc4Cl)nn23)cc1 | inconclusive: 11.2 µM [inhibitor, single point]
CCN(CC)c1ccc(CNc2nc3ccccc3n2CCN2CCOCC2)cc1 | inconclusive: 14.1 µM [inhibitor, single point]
COc1ccc2cc(-c3[nH]ncc3CN3CCCC3c3nonc3C)ccc2c1 (stereo not given) | inconclusive: 28.2 µM [inhibitor, single point]
CCOC(=O)NCCc1c(C)nc2c(c(C)nn2C(C)(C)C)c1C | inconclusive: 12.6 µM [inhibitor, partial curve]
CCc1nc2ccc(C(=O)NCCCN3CCN(c4ccc(F)cc4)CC3)cc2nc1CC | inconclusive: 7.94 µM [inhibitor, partial curve]
COc1ccc(CN2CCC(C(=O)Nc3ccc(Oc4cccnc4)cc3)CC2)cc1 | inconclusive: 3.98 µM [inhibitor, full curve, poor fit]
O=S(=O)(c1cccs1)N1CCC(CO)(Cc2ccc(Cl)cc2)CC1 | inconclusive: 31.6 µM [inhibitor, single point]
Cc1ccc2c(c1)/C(=C/c1ccc(F)cc1)C(=O)N2 | active: 11.2 µM
CN(C)CCCNS(=O)(=O)c1cc(Cl)c(Cl)cc1Cl | inconclusive: 10 µM [inhibitor, partial curve]
O=C(Oc1ccc(/C=N/n2cnnc2)cc1)c1cccc([N+](=O)[O-])c1 | inactive
COc1ccc(/C=C/C(=O)Nc2cc(C)nn2-c2nc3ccccc3n2Cc2cccc([N+](=O)[O-])c2)cc1 | inconclusive: 3.98 µM [inhibitor, partial curve]
